Measurements reported in PubChem BioAssay AID652106 (National Center for Advancing Translational Sciences (NCATS), 2013).
In all, about 370,000 compounds went through this assay and about 500 (0.14%) were called active. Inconclusive means that the source gave no clear call. Such entries were picked first, then a sample of the others. Calls follow the shape of the dose curve; as a rule, active = well fitted activation curve with a large enough effect; inconclusive = small, poorly fitted or top-dose-only effect; inactive = no such curve, though single readings can be large or run the other way. No potency is given beside an inconclusive call; the fits are too rough.
Potency is read from the fitted curve at half-maximal effect; tags tell the direction and shape of the fitted curve.

Experiment: qHTS of alpha-syn Inhibitors; also: nearly all actives have a fitted effect of over 65% in size; as to growth rescue (activation): % of control where 0% means no effect
Details: Yeast expressing alpha-synuclein, BacTiter-Glo, 24 h; Potency: growth rescue unless noted; growth rescue (activation): at 46.1 µM (top of the series) unless noted
Summary of the method: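 Galactose-induced alpha-syn yeast (OD600=0.02, raffinose-pregrown) + pinned cpd, 24 hr, 30 deg C; growth by BacTiter-Glo luminescence. Growth restoration scores as activation.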
With `CCN(CC)S(=O)(=O)c1ccc(N2CCOCC2)c(NC(=O)c2sccc2C)c1` the Potency was inconclusive [activator, single point]. In the case of `COc1ccc(/C=C2/CCc3ccccc3C2=O)cc1OC`, the Potency is reported as “inactive”. For `CCOc1ccc(CSC2=NCCN2)cc1Cl`, the Potency was inconclusive [activator, single point]. For `COc1ccc2oc(C(=O)Nc3nc4ccccc4[nH]3)c(C)c2c1`, the Potency was “inactive”. With `COc1ccc2c(c1)c(C(=O)O)c(C)n2CCc1ccc(OC)c(OC)c1` the Potency was “inactive”. For `Clc1cc(Br)ccc1OCCn1ccnc1`, the Potency was inconclusive [activator, single point]. In the case of `CCCCc1c(-c2cccc(Br)c2)ncn1CCc1ccccc1OC`, the Potency is reported as “inactive”. In the case of `Cc1ccc(NCC(=O)Nc2cccc(F)c2)cc1S(=O)(=O)N1CCCCCC1`, the Potency is reported as inconclusive [activator, single point]. In the case of `O=S1(=O)C=C(Sc2nnc(-c3ccccc3)o2)c2ccccc21`, the Potency is reported as “inactive”. In the case of `CCc1ccc2c(c1)NC(=O)C2(C)Cc1ccccc1OC` (configuration not stated), the Potency is reported as inconclusive [activator, single point]. With `CCCOc1ccc(C(=O)NCc2cccnc2)cc1` the Potency was inconclusive [activator, single point]. For `Cc1ccc(-c2nnn(CC(=O)N(CC(=O)NC3CCCCC3)c3cnc4ccccc4c3)n2)o1`, the Potency was inconclusive [activator, single point]. For `COc1ccc(-c2ccc(N(C)C)cc2)cc1[C@H]1[C@H]2C=CC[C@@H](C)[C@@H]2C(=O)N1Cc1ccccc1`, the Potency was inconclusive [activator, single point]. With `COc1ccc(C(=O)NC(=S)NNC(=O)c2ccc(C)cc2)cc1` the Potency was “inactive”. For `O=C1OC(/C(=C\Nc2ccc(F)cc2F)[N+](=O)[O-])c2ccccc21` (configuration not stated), the Potency was active: 17.8 µM. In the case of `O=C(COc1ccc(F)cc1)N/N=C/c1cccc2cccnc12`, the Potency is reported as inconclusive [activator, single point]. For `CCN(Cc1ccccc1)c1ccc(/C=C/c2nccc3ccccc23)cc1`, the Potency was inconclusive [activator, single point]. In the case of `Cc1ccc(-n2nnnc2C(Cl)(Cl)c2nnnn2-c2ccc(C)cc2)cc1`, the growth rescue (activation) is reported as inconclusive: -93.4% [activator]. For `Cc1nc2c(ccc3nc(NC(=O)Cc4cccc5ccccc45)sc32)s1`, the Potency was inconclusive [activator, partial curve]. In the case of `CC(C)(C)C(=O)N(Cc1ccc(Cl)cc1)Cc1cccnc1`, the Potency is reported as inconclusive [activator, single point]. In the case of `COc1ccc(OCc2nnc(SCC(=O)N3CCCC3)o2)cc1`, the Potency is reported as inconclusive [activator, single point]. With `CCC(=O)OC1(C)C(=O)C=C2C=C(C3CC3)OC=C2C1=O` (configuration not stated) the Potency was “inactive”. With `COc1ccc(NC(=O)Nc2cc(C(C)(C)C)on2)cc1OC` the Potency was inconclusive [activator, single point]. In the case of `O=c1[nH]cnc(O)c1C1C=CC=CC=C1`, the Potency is reported as inconclusive [activator, single point]. For `Cc1ccc(C(=O)O[C@H](C(=O)O)[C@@H](OC(=O)c2ccc(C)cc2)C(=O)O)cc1` (tested in a mixture with another compound), the Potency was “inactive”. For `CCOC(=O)C(NCCc1ccccc1F)(NC(=O)CC)C(F)(F)F` (configuration not stated), the Potency was inconclusive [activator, single point]. In the case of `COc1cccc(CN2CCN(C(=O)[C@H]3O[C@@H](n4cnc5c(N)ncnc54)[C@H](O)[C@@H]3O)CC2=O)c1`, the Potency is reported as inconclusive [activator, single point]. In the case of `CCc1cccc(C)c1NC(=S)NCC1CCN(c2ccc(OC)cc2)C1` (configuration not stated), the Potency is reported as inconclusive [activator, single point]. In the case of `COc1ccc2c(c1)[nH]c1c(Cl)ncnc12`, the Potency is reported as inconclusive [activator, partial curve, poor fit]. In the case of `COc1ccccc1S(=O)(=O)N(C)C[C@H]1OCc2cnnn2CCCC(=O)N([C@@H](C)CO)C[C@@H]1C`, the Potency is reported as inconclusive [activator, single point]. For `Cc1nc(-c2ccccn2)sc1C(=O)Nc1ccc(F)cc1F`, the Potency was inconclusive [activator, single point]. For `C[C@H]1CN([C@@H](C)CO)C(=O)c2cc(C3=CCCC3)cnc2O[C@@H]1CN(C)C(=O)c1ccncc1`, the Potency was inconclusive [activator, single point]. With `CC(C)Nc1ncnc2c1cnn2Cc1ccccc1Cl` the Potency was inconclusive [activator, single point]. With `COc1ccc(N(C(=O)c2cccnc2)S(=O)(=O)c2ccc(Cl)cc2)cc1` the Potency was inconclusive [activator, single point]. With `Cc1ccc(Nc2c(-c3ccccn3)nc3cccc(C)n23)cc1` the Potency was inconclusive [activator, single point]. For `C[C@]12CCC(=O)CC1=CCC1C3CC=C(C#N)[C@@]3(C)CC[C@@]12O` (some centres not stated), the Potency was inconclusive [activator, single point]. In the case of `CC(=O)c1cc2c(C)cc(=O)oc2cc1O`, the Potency is reported as inconclusive [activator, partial curve, poor fit]. In the case of `COc1ccc(CC(=O)Nc2ccc3c(c2)C(=O)N(CCC(=O)O)C3=O)cc1`, the Potency is reported as “inactive”. With `NC(=O)CNC(=O)C1CCN(S(=O)(=O)c2ccc(-n3cnnn3)cc2)CC1` the Potency was “inactive”. With `O=S(=O)(c1ccccc1Br)N(CC(O)COCc1ccccc1)C1CC1` (configuration not stated) the Potency was inconclusive [activator, single point]. With `COc1cc(C(=O)NNC(=O)c2cc(S(=O)(=O)N(C)C)ccc2N2CCCC2)cc(OC)c1OC` the Potency was inconclusive [activator, single point]. In the case of `CSC1CCCCC1(O)CSc1nc2ccccc2o1` (configuration not stated), the Potency is reported as inconclusive [activator, partial curve]. With `Cc1nc2ccccc2c2nc3ccccc3n12` the Potency was inconclusive [activator, partial curve]. With `COc1ccc(NC(=O)CCn2c(=O)c3cccn3c3ccccc32)c(OC)c1` the Potency was “inactive”. With `CCN(CC)c1ccc2cc(C(=O)c3cccs3)c(=O)oc2c1` the Potency was inconclusive [activator, full curve]. For `C/C(=N\NC(=O)c1cc(-c2ccncc2)nc2ccccc12)c1ccc(N2CCOCC2)cc1`, the Potency was “inactive”. In the case of `CC(C)n1c(CSCc2ccc(Cl)cc2Cl)n[nH]c1=S`, the Potency is reported as inconclusive [activator, single point]. In the case of `CCn1c(CCNC(=O)c2ccc(OC)cc2)nnc1SCc1ccc(Cl)cc1Cl`, the Potency is reported as inconclusive [activator, single point]. For `CC1(C(=O)N2CCCCC2)CCN1C(=O)c1ccccc1CCc1ccccc1` (configuration not stated), the Potency was inconclusive [activator, single point]. For `CC(=O)O[C@H]1C(=O)[C@@]2(C)[C@H]([C@H](OC(=O)c3ccccc3)[C@]3(O)C[C@H](OC(=O)[C@H](O)C(NC(=O)c4ccccc4)c4ccccc4)C(C)=C1C3(C)C)[C@]1(OC(C)=O)CO[C@@H]1C[C@@H]2O` (some centres not stated), the Potency was inconclusive [activator, single point]. For `O=C(OCn1ncc(Br)c(Br)c1=O)c1ccccc1Cl`, the Potency was “inactive”. In the case of `CCc1ccc(NC(=O)CN(c2cccc(C)c2)S(C)(=O)=O)cc1`, the Potency is reported as inconclusive [activator, single point]. With `O=C(O)CSc1cc(NS(=O)(=O)c2ccc(Cl)cc2)c2ccccc2c1O` the Potency was inconclusive [activator, single point]. For `O=C(Nc1cccc(OC(F)(F)F)c1)C1Cc2c(-c3ccc(Cl)cc3)ccnc2O1` (configuration not stated), the Potency was inconclusive [activator, single point]. For `CCN1CCc2c(C#N)c(N3CCOCC3)nc(NCCO)c2C1`, the Potency was “inactive”. In the case of `CSCCC(NS(=O)(=O)c1cc(C(=O)O)ccc1Cl)C(=O)O` (configuration not stated), the Potency is reported as inconclusive [activator, single point]. In the case of `Cc1ccc(-c2cn(-c3ccccc3F)c(=S)[nH]2)cc1`, the Potency is reported as “inactive”. With `O=c1c(OCc2ccccc2)cccn1Cc1ccccc1` the Potency was inconclusive [activator, single point]. For `Nc1c(Cl)cnc(C(Cl)(Cl)Cl)c1Cl`, the Potency was “inactive”. For `COc1cc(/C=N/NC(=O)c2cc(-c3ccccc3)sc2N)cc(OC)c1OC`, the Potency was “inactive”. In the case of `COc1ccccc1C(=O)Nc1nnc(-c2ccc3c(c2)CCCC3)o1`, the Potency is reported as inconclusive [activator, single point]. With `Cc1ccc(Sc2ccc(S(=O)(=O)Nc3ccc(CC(=O)O)cc3)cc2)cc1C` the Potency was inconclusive [activator, single point]. In the case of `CCOC(=O)C1(c2ccccc2)SC(C(=O)OCC)(c2ccccc2)S1` (configuration not stated), the Potency is reported as inconclusive [activator, single point]. For `O=C(COc1ccc(Cl)cc1[N+](=O)[O-])N/N=C/c1cccs1`, the Potency was inconclusive [activator, single point]. With `O=C(CC(=O)c1ccccc1)CC(O)(C=Cc1ccccc1)c1ccccc1` (configuration not stated) the Potency was inconclusive [activator, single point]. With `CCOC(=O)C1=CCN(S(=O)(=O)c2ccccc2C)C1c1ccc(Cl)c(Cl)c1` (configuration not stated) the Potency was inconclusive [activator, single point]. With `COc1cccc(CN(C)S(=O)(=O)c2ccc3c(c2)OCCO3)c1` the Potency was “inactive”.
